Laboratory results as given in the antibiotic and cytotoxicity screens of Wong et al. (2023).
This is one part of the list.

Key:
HSkMC = human skeletal muscle cells; test: cytotoxicity call (relative viability < 0.9); details: 10 µM
HepG2 = test: cytotoxicity call (relative viability < 0.9); details: 10 µM
S. aureus RN4220 = test: growth inhibition call (relative growth <= 0.2); details: 50 µM

NC1(C(=O)O)CCCC1
inactive: cytotoxicity call (HSkMC) | cytotoxicity call (HepG2) | growth inhibition call (S. aureus RN4220)

CN1CCN([C@@H]2CCN(S(C)(=O)=O)[C@H]2Cc2cnn(C)c2)CC1
inactive: cytotoxicity call (HSkMC) | cytotoxicity call (HepG2) | growth inhibition call (S. aureus RN4220)

COc1ccccc1CN1C(=O)c2ccccc2[C@@]2(Cc3ccccc3N(C3CC3)C2=O)[C@@H]1c1ccc(CO)cc1
inactive: cytotoxicity call (HSkMC) | cytotoxicity call (HepG2) | growth inhibition call (S. aureus RN4220)

C[C@@H]1CN([C@H](C)CO)C(=O)c2cc(NC(=O)Cn3cnnn3)ccc2O[C@@H]1CN(C)C(=O)Nc1cccc2ccccc12
inactive: cytotoxicity call (HSkMC) | cytotoxicity call (HepG2) | growth inhibition call (S. aureus RN4220)

C[C@@H]1CCCCO[C@H](CN(C)S(=O)(=O)c2ccc(F)cc2)[C@H](C)CN([C@H](C)CO)C(=O)c2cc(NS(C)(=O)=O)ccc2O1
inactive: cytotoxicity call (HSkMC) | cytotoxicity call (HepG2) | growth inhibition call (S. aureus RN4220)

Cc1cc(C(=O)Nc2cccc3c2O[C@@H](CN(C)S(C)(=O)=O)[C@@H](C)CN([C@H](C)CO)C3=O)n(C)n1
inactive: cytotoxicity call (HSkMC) | cytotoxicity call (HepG2) | growth inhibition call (S. aureus RN4220)

Cc1ccc(S(=O)(=O)Nc2cccc3c2O[C@@H](CN(C)S(=O)(=O)c2ccc(F)cc2)[C@H](C)CN([C@H](C)CO)C3=O)cc1
inactive: cytotoxicity call (HSkMC) | cytotoxicity call (HepG2) | growth inhibition call (S. aureus RN4220)

C[C@H]1CN([C@@H](C)CO)S(=O)(=O)c2ccc(C#CC3CC3)cc2O[C@H]1CN(C)C(=O)C1CCCCC1
inactive: cytotoxicity call (HSkMC) | cytotoxicity call (HepG2) | growth inhibition call (S. aureus RN4220)

O=S(=O)(NCC[C@@H]1CC[C@H](NS(=O)(=O)c2cccc(Cl)c2)[C@H](CO)O1)c1cccc(F)c1
inactive: cytotoxicity call (HSkMC) | cytotoxicity call (HepG2) | growth inhibition call (S. aureus RN4220)

CC=Cc1ccc2n(c1=O)C[C@@H]1[C@@H](CO)[C@H](C(=O)NC3CCC3)[C@H]2N1S(=O)(=O)c1cn(C)cn1
inactive: cytotoxicity call (HSkMC) | cytotoxicity call (HepG2) | growth inhibition call (S. aureus RN4220)
